# Assay results taken from the supplement of paper PMC11417369.
# Some of the results follow.
# System: PF3D7_0420300 AP2 domain 1 (GST-tagged)
# Assay: gcPBM binding intensity (ln(normalized median fluorescence intensity)); higher = stronger DNA binding
# Procedure, shortened: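 Using an Agilent 4 × 180k array, primer-extended double-stranded 36-bp intergenic genomic probes and negative controls were exposed for 1 h to GST-fused P. falciparum DNA-binding domains expressed in E. coli. Binding was carried out in 1× PBS with 1% milk, 0.2 mg/ml BSA, 0.5% salmon testes DNA and 0.03% Triton X-100, and protein was detected with Alexa488 anti-GST antibody and a 488 nm scan. Binding intensity is the highest Masliner-normalised natural-log median intensity across replicate spots of either probe orientation.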
row,Sequence,gcPBM binding intensity (ln)
1,TATCATCATGTATGTACACACATACCTATATTATGT [CACACA_site6768],9.66
2,TCTTATTTAATTAAACAAAAGAAAAAGAAAGAAAAG [CACACA_negctrl_site1569],9.14
3,TTAGAAGGGATTAAAGTGCAAAATAGGATTAGAGTA,9.41
4,TACAAGTATAAATAAGCACACATGTGTATATGTACA [CACACA_site7911],9.6
5,TTTTTTTTTCCTTCTTGTACATATTATATATACATA [XGTACX_site5988],9.38
6,TGGAACGTAATAAAATGTACATACGTTTTTCATATG [XGTACX_site6229],9.12
7,AACACATACATATATGCACACATTTTATTCCATTAT [CACACA_site2834],9.76
8,TTTTTTTTTTTTTGTACATGCAAATATTATGAACAC [TGCATGCA_site571],8.85
9,GACAAATTAATCGATTGTACACAATTTGTTTCGTTG [XGTACX_site35],9.34
10,TTCACATATATATAACGTACATTATTATTATTCTGA [XGTACX_site6006],9.28
11,TTTTCATATATTTATTGTACATATTACATATATAAT [XGTACX_site2425],9.4
12,TTTTATAAATATTTTTGTACACATTTAAATATTATT [XGTACX_site4973],9.2
13,ATTTATAAATCAAAGTGTACATATGTTTTATTTTTT [XGTACX_site804],9.35
14,TTTTTTTAATAAAAGTGTACCAAATTATATACACAT [XGTACX_site6811],9.19
15,AGAGAGAACGGTATAACATGCAATAAATTTCAGAAG [TGCATGCA_site423],9.41
16,TTTTATTATATGGAGGTGCATATATAATAATATAAT [GTGCAC_site9477],9.16
17,ATCGGTAATATTAACACACACATTTATTTATATTTA [CACACA_site6638],9.72
18,TTCTTTTTAAATATACTAATTATGTATAAAACAGAA [GTGCAC_negctrl_site131],8.8
19,ATGTATGTAATAAAAAGTACATATGTTCATAATAAA [XGTACX_site842],9.36
20,TTTTTTTTTTTTTTAACACACATATAAATATTTTTC [CACACA_site6985],9.11
21,ATTCTTGTTATATAAGGTACAGAACAAAATATAAAA [XGTACX_site5510],9.11
22,TTTGGGATAAAACAAAGTACTAACAAAATATATAAT [XGTACX_site8240],9.35
23,TGCATTTTACTTGTTACACACATATAAAATTAACCA [CACACA_site7387],9.6

row,Sequence,gcPBM binding intensity (ln)
1,TTTTTCTATTCCATTCAACACACAAAAATGTATGCT [CACACA_site8268],9.37
2,AAAGTTTTAAGAAAATGTACATAAGTATACATATAT [XGTACX_site1293],9.18
3,AAATGGAGTTAATATTGTACATATATATATATATAT [XGTACX_site5452],9.26
4,TAATAATAACCGTTATGTACACAATTTTGTGAACAT [XGTACX_site8053],9.25
5,GATGGAATCTAATTTACATGCAGTGATATAATAAAT [TGCATGCA_site1031],9.06
6,ATTTATTTATTTATATGTACATATATATATATATAT [XGTACX_site339],9.26
7,TACAGACAGAAACACACACACACGCATAAAAAAAAA [CACACA_site1514],10
8,TATACAATATTTATAACACACATATTTATATAAACT [CACACA_site6932],9.43
9,AGAACATTTTCTCAGTGTACTTATATATTTGACATA [XGTACX_site6541],9.25
10,ACTAAACAATATGTATGTACATATTTTACATATAAT [XGTACX_site3318],9.26
11,ATATATCATGAACCTTGTACGTATATATATATATAT [XGTACX_site239],9.37
12,ACTTCCTATATTTATGCATGCATTTTATTAAAAAAT [TGCATGCA_site747],9.34
13,TAACAAAAAGCACTTAGTACATATATATATATATAT [XGTACX_site1099],9.39
14,AATATAACTTTTTGCACACTTAATTTTTTTTTTTAA [CACACA_site3365],9.51
15,TTTCTTTTTAAATATATACACACCGGGTGTACATAT [CACACA_site3345],9.29
16,TATATTTATTATAACACACACATATTTATATTATAG [CACACA_site6628],9.61
17,AGGTAATATACTAAATGTACAGAAAAACGAATTTTT [XGTACX_site2977],9.36
18,AATGAAATAATACAATGTACGTTAAAAAAAAATAAA [XGTACX_site7928],9.46
19,TAATATCAAACCTATAGTACATAAGGTATAAAAAAG [XGTACX_site3533],9.29
20,GTATTATTTTATGATGCATGTGTATTTCATATATGC [TGCATGCA_site660],9.19
21,GTTAAGTGTATATATACACACATATGTAATACATGA [CACACA_site3048],9.47
22,TAATTAAAATTATATATTAGAAAAAACATATAAAAC [CACACA_negctrl_site190],9.37
23,ATATGTAGAATAAAAAAAAAAAAAAAAAAAAAAAAT [CACACA_negctrl_site621],9.39

row,Sequence,gcPBM binding intensity (ln)
1,AATATTGAAATAACGCGTACAAAAAAAAGTTATATT [XGTACX_site6559],9.47
2,TAAAAATATATGTATACACACATATATATATATATA [CACACA_site3951],9.21
3,AAAAAAAGTGACTCCTTACACACTTTACATAATTTA [CACACA_site820],9.3
4,ATGTTATATTATAAAAGTACATTTTATTTTTATTTA [XGTACX_site4365],9.16
5,ATTTCCTTTTTCTGTTGTACTCATAAAATAATATGT [XGTACX_site7234],9.46
6,TTAATTTATAAAAACACACACAGGTAAAAAGGTGCA [CACACA_site1177],9.74
7,CTTATAATATTACGGGTGCTATAAATACATTATATT,9.39
8,TAAATCAAAAACAACAAGTCATATTAAAGATGGTAT [CACACA_negctrl_site1321],9.51
9,TTGTTTCAAAATTAAACACACACAAAAAAAAAAAAA [CACACA_site8856],9.48
10,TATATTTATATCATCACACATTTTTTTTTTCTTTTT [CACACA_site6150],9.43
11,AAGGAAAACAGTAGGTGTACCAAACGTCCTAGGAAC [XGTACX_site3659],9.58
12,TAATATATAAATATATGTACATAATTAATAGGATAT [XGTACX_site237],9.43
13,GGATATATAAGATACACACACAAATTAAATATAAAA [CACACA_site7333],9.97
14,TATTCCTAATTTAAAAGTACATATATATATATATAT [XGTACX_site3008],9.09
15,AAAAAAAAAAAAATTACACACATACCTATAAGAATA [CACACA_site7097],9.8
16,TTTTCTTTTTTCTTTTTAACTCTTACATAATAGGTG [CACACA_negctrl_site642],9.03
17,AATATATGTTAAAATGGTACACAATTATTATATATT [XGTACX_site6407],9.43
18,AAAAAAAAAAAAAAGAGTACTTTTTTCACATTCATC [XGTACX_site8795],8.96
19,TAAAATGAATAAAATTGTACTTAATAATATTTTAAA [XGTACX_site5532],9
20,TTCTTTTAAAAATATATTTTAAGAAAATTTAATTTA [GTGCAC_negctrl_site237],8.58
21,GGATAAGAAAAGAAGTGTACATATATATATATATAT [XGTACX_site8290],9.04
22,TTTATTTTTTGAAACACACACAAAAAAAATGATACA [CACACA_site1881],9.49
23,CAAAAAAAAAAACGGGTGCTAAATTTTATTTTTTAT,9.04

row,Sequence,gcPBM binding intensity (ln)
1,AAAAAAAAAATATATATATATATATATATATATATA [GTGCAC_negctrl_site467],8.83
2,ATAAAGCACACCGACACACACATATATATATATATA [CACACA_site1047],9.8
3,TATCATGGTTCGGATTGTACATATATGAATTTTTTT [XGTACX_site7478],9.41
4,TTTTTTAAATTTAAAGTGCATTATTATATATTTGTA,9.2
5,CCAGTGTGCACCTTGCGTACATATTAAATTAATTAA [XGTACX_site3729],9.11
6,AAAAAAGAAATAAGGATACACACTATTGATAAAAGT [CACACA_site272],9.84
7,TATATATTATATAAATAAATAAATATATATATTTAT [TGCATGCA_negctrl_site270],8.94
8,AATGATTTTGATTAACGTACGTACAAATATATATAT [XGTACX_site6604],9.17
9,AGACCTATGATATATACACACATATAAATAAATATA [CACACA_site6725],9.52
10,TTATTAAATATAAATATGTATCTTTTATGTTATATT [CACACA_negctrl_site306],9.18
11,AAAAAAAAAAGACACACACACATAGACCTCCAATAG [CACACA_site7646],9.95
12,TATTTTACGACATACCAAAAAAAAAAAAAAAAAATA [CACACA_negctrl_site1254],9.23
13,TAAATCCGCAGGCACACACACATATTAATAAAAAAA [CACACA_site3991],9.77
14,AATGTTAAACTATGATGTACGGTTAAAAATATAATT [XGTACX_site893],9.42
15,TGATATTATAGATATACACACATGTATGTATTTATA [CACACA_site6758],9.4
16,AAATTTAGTAAAAAATGTACGTAAAATGTAAAATAT [XGTACX_site1314],9.48
17,ATACTAACATTTTTTTGTACATATAACTATAAAATA [XGTACX_site1033],9.16
18,AAGGTAAACGGACACACACACATACAAAAAAAAAAA [CACACA_site5961],10.1
19,ATATATATGTATGTATATATATATATATATGTTTGA [CACACA_negctrl_site107],9.28
20,TTTTTTTTTCTGTATACACACAAAATTTATTTTTTA [CACACA_site2873],9.38
